Test results taken from the antibiotic and cytotoxicity screens of Wong et al. (2023).
The other results are listed elsewhere or left out.

Legend:
[1] = system: HSkMC (human skeletal muscle cells); assay: cytotoxicity call (relative viability < 0.9); conditions: 10 µM
[2] = system: HepG2; assay: cytotoxicity call (relative viability < 0.9); conditions: 10 µM
[3] = system: S. aureus RN4220; assay: growth inhibition call (relative growth <= 0.2); conditions: 50 µM

Row | SMILES | cytotoxicity call [1] | cytotoxicity call [2] | growth inhibition call [3]
1 | C[C@H](CO)N1C[C@H](C)[C@H](CN(C)Cc2ccncc2)Oc2ncc(C#Cc3ccc(F)cc3)cc2C1=O | inactive | inactive | inactive
2 | COc1ccccc1-c1cnc2c(c1)C(=O)N([C@@H](C)CO)C[C@H](C)[C@H](CN(C)C(=O)c1ccncc1)O2 | inactive | inactive | inactive
3 | Cc1noc(C)c1NC(=O)N(C)C[C@@H]1Oc2cc(C#CCN(C)C)ccc2S(=O)(=O)N([C@H](C)CO)C[C@@H]1C | inactive | inactive | inactive
4 | Cc1noc(C)c1S(=O)(=O)Nc1ccc2c(c1)C(=O)N([C@H](C)CO)C[C@H](C)[C@@H](CN(C)S(C)(=O)=O)O2 | inactive | inactive | inactive
5 | O=C(C[C@@H]1CC[C@H]2[C@@H](COC[C@@H](O)CN2S(=O)(=O)c2ccccc2)O1)NCc1ccc(-c2ccccc2)cc1 | inactive | inactive | inactive
6 | COc1cccc(C#Cc2cnc3c(c2)C(=O)N([C@@H](C)CO)C[C@@H](C)[C@H](CN(C)C(=O)C2CCC2)O3)c1 | inactive | inactive | inactive
7 | O=C(C[C@H]1C[C@@H]2c3cc(NC(=O)c4cccnc4)ccc3O[C@@H]2[C@H](CO)O1)NCc1cc(F)ccc1F | inactive | inactive | inactive
8 | Cc1ccc(S(=O)(=O)N(C)C[C@H]2OCCCC[C@H](C)Oc3ccc(NC(=O)Nc4ccc5c(c4)OCO5)cc3C(=O)N([C@@H](C)CO)C[C@H]2C)cc1 | inactive | inactive | inactive
9 | C[C@@H]1CN([C@@H](C)CO)C(=O)c2cccc(NC(=O)C3CC3)c2O[C@H]1CN(C)Cc1ccc(Oc2ccccc2)cc1 | inactive | inactive | inactive
10 | C[C@@H]1CN([C@@H](C)CO)C(=O)c2cc(NC(=O)C3CC3)ccc2O[C@@H]1CN(C)S(=O)(=O)c1cn(C)cn1 | inactive | inactive | inactive
11 | COc1ccc(NC(=O)Nc2ccc3c(c2)CC(=O)N([C@H](C)CO)C[C@H](C)[C@@H](CN(C)Cc2ccc(Cl)c(Cl)c2)O3)cc1 | inactive | inactive | inactive
12 | C[C@@H]1CN([C@H](C)CO)C(=O)Cc2cc(NC(=O)Nc3cccc4ccccc34)ccc2O[C@@H]1CN(C)CC1CCCCC1 | inactive | active | inactive
13 | C[C@@H]1CN([C@@H](C)CO)C(=O)c2cc(NS(=O)(=O)c3ccc(Cl)cc3)ccc2O[C@@H](C)CCCCO[C@H]1CN(C)S(=O)(=O)c1ccccc1 | inactive | inactive | inactive
14 | COCC(=O)N1C[C@H](C)[C@H](OC)CN(C)C(=O)c2ccc(NC(=O)Nc3cccc(F)c3)cc2OC[C@H]1C | inactive | inactive | inactive
15 | Cc1noc(C)c1NC(=O)Nc1ccc2c(c1)C(=O)N([C@@H](C)CO)C[C@H](C)[C@H](CN(C)Cc1ccc(C(=O)O)cc1)OCCCC[C@@H](C)O2 | inactive | inactive | inactive
16 | COc1ccc(NC(=O)N(C)C[C@@H]2OCCCC[C@@H](C)Oc3ccc(NC(=O)NC4CCCCC4)cc3C(=O)N([C@H](C)CO)C[C@@H]2C)cc1 | inactive | inactive | inactive
17 | COc1ccc(NC(=O)N(C)C[C@H]2OCCCC[C@H](C)Oc3ccc(NC(=O)C4CCCCC4)cc3C(=O)N([C@@H](C)CO)C[C@H]2C)cc1 | inactive | inactive | inactive
18 | Cc1noc(C)c1S(=O)(=O)Nc1ccc2c(c1)CC(=O)N([C@H](C)CO)C[C@H](C)[C@H](CN(C)S(C)(=O)=O)O2 | inactive | inactive | inactive
19 | C[C@H]1CN([C@@H](C)CO)C(=O)Cc2cc(NC(=O)Nc3cccc4ccccc34)ccc2O[C@@H]1CN(C)S(=O)(=O)c1ccc(Cl)cc1 | inactive | inactive | inactive
20 | C[C@H](CO)N1C[C@H](C)[C@@H](CN(C)S(=O)(=O)c2cn(C)cn2)Oc2ncc(C#CCN(C)C)cc2C1=O | inactive | inactive | inactive
21 | C[C@@H]1CCCCO[C@H](CN(C)C(=O)Nc2ccc(C(F)(F)F)cc2)[C@H](C)CN([C@H](C)CO)C(=O)c2cc(NC(=O)c3ccccc3)ccc2O1 | inactive | inactive | inactive

Row | SMILES | cytotoxicity call [1] | cytotoxicity call [2] | growth inhibition call [3]
22 | COc1cc(C(=O)NC2CCN(C)CC2)ccc1Nc1ncc2c(n1)N(C1CCC(O)CC1)CCC(=O)N2C (stereo unspecified) | inactive | inactive | inactive
23 | CO[C@@H]1CN(C)C(=O)c2ccc(NS(C)(=O)=O)cc2OC[C@@H](C)N(C(=O)CN(C)C)C[C@H]1C | inactive | inactive | inactive
24 | CC(C)NC(=O)N(C)C[C@H]1Oc2ccc(NC(=O)CCC(F)(F)F)cc2CC(=O)N([C@H](C)CO)C[C@@H]1C | inactive | inactive | inactive
25 | C[C@@H]1CN([C@@H](C)CO)C(=O)c2cc(NS(=O)(=O)c3cn(C)cn3)ccc2O[C@@H](C)CCCCO[C@@H]1CN(C)Cc1ccc(C(F)(F)F)cc1 | inactive | inactive | inactive
26 | C[C@@H]1CCCCO[C@@H](CN(C)C(=O)C2CCCCC2)[C@H](C)CN([C@H](C)CO)C(=O)c2cc(NC(=O)c3ccccc3)ccc2O1 | inactive | inactive | inactive
27 | CN(C)c1ncnc2c1ncn2[C@H]1O[C@@H](CO)[C@@H](N)[C@@H]1O | inactive | active | inactive
28 | O=C(C[C@H]1C[C@H]2c3cc(NC(=O)c4ccc5c(c4)OCO5)ccc3O[C@H]2[C@@H](CO)O1)NCCN1CCCCC1 | inactive | inactive | inactive
29 | COc1ccc(NC(=O)Nc2ccc3c(c2)C(=O)N([C@H](C)CO)C[C@H](C)[C@@H](CN(C)C(=O)Nc2ccc4c(c2)OCO4)OCCCC[C@H](C)O3)cc1 | inactive | active | inactive
30 | O=C(C[C@H]1C=C[C@H](NC(=O)c2ccncc2)[C@@H](CO)O1)NCc1ccncn1 | inactive | inactive | inactive
31 | CCOC(=O)c1cn2cn[nH]c2nc1=O | inactive | inactive | inactive
32 | C[C@H](CO)N1C[C@H](C)[C@@H](CN(C)S(=O)(=O)c2ccc(F)cc2)Oc2ccc(NS(=O)(=O)c3cn(C)cn3)cc2CC1=O | inactive | inactive | inactive
33 | C[C@@H]1CN([C@H](C)CO)C(=O)c2cc(NC(=O)Nc3ccc(C(F)(F)F)cc3)ccc2O[C@@H](C)CCCCO[C@H]1CN(C)Cc1ccccc1 | active | active | inactive
34 | CC(=O)N(C)C[C@H]1Oc2ncc(C#C[C@@H](C)O)cc2C(=O)N([C@@H](C)CO)C[C@H]1C | inactive | inactive | inactive
35 | C=CCN([C@@H](Cc1ccccc1)[C@@H](O)c1cn(CCCCCCNC(=O)C(=O)NC)nn1)S(=O)(=O)c1ccccc1[N+](=O)[O-] | inactive | inactive | inactive
36 | CC(C)CS(=O)(=O)C1CNC1 | inactive | inactive | inactive
37 | Cc1cnc(N2C[C@H]3OCCN(S(=O)(=O)N(C)C)[C@H]3C2)nc1 | inactive | inactive | inactive
38 | Cc1noc(C)c1S(=O)(=O)Nc1ccc2c(c1)C(=O)N([C@@H](C)CO)C[C@H](C)[C@H](CN(C)Cc1ccccc1)OCCCC[C@@H](C)O2 | inactive | inactive | inactive
39 | C[C@@H]1CN([C@@H](C)CO)C(=O)c2cc(NC(=O)C3CCCCC3)ccc2O[C@@H](C)CCCCO[C@H]1CN(C)C(=O)c1ccccc1 | inactive | inactive | inactive
40 | C[C@@H]1CN([C@@H](C)CO)S(=O)(=O)c2ccc(C#CC3CC3)cc2O[C@@H]1CN(C)C(=O)C1CCCCC1 | inactive | inactive | inactive
41 | COc1ccc(OC)c([C@@H](O)CNC(=O)CN)c1 | inactive | inactive | inactive
42 | O=C(CN1CCOCC1)NCC[C@@H]1CC[C@@H](NC(=O)c2ccc3c(c2)OCO3)[C@@H](CO)O1 | inactive | inactive | inactive
